# Source: the supplement of paper PMC6531468
# The other results are listed elsewhere or left out. Values come from read counts of a selection and are noisy. Each score is taken over the longer molecules that contain the sequence shown.
# Test system: IMP3 KH1-4
# Experiment: 6-mer SELEX enrichment z-score vs GST control; IMP3 is the RNA-binding protein IGF2BP3; higher = more enriched by binding
# Conditions: construct: KH1-4 (164-579); SELEX round: R4
# Procedure: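 SELEX-seq with GST-tagged IMP3 KH1-4 (Pro164-Lys579) and an N40 RNA pool, round 4. 6-mer z-score of sequence-tag enrichment normalised to the corresponding GST SELEX round; RNA k-mers written as DNA (T for U).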
# Sequence of IMP3 KH1-4 (chain, as listed by the source): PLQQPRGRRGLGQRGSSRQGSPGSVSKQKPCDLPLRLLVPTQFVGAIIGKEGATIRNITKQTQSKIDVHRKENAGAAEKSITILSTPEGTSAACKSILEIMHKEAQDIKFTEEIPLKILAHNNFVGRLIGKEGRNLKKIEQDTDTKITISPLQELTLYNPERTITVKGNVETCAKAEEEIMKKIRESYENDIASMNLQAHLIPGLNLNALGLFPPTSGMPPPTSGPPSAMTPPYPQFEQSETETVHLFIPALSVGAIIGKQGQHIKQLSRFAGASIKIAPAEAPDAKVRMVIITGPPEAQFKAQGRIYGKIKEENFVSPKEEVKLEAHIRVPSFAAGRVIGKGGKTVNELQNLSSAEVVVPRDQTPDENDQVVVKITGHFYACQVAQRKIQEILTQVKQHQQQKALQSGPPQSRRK
row,Sequence,6-mer SELEX enrichment z-score
1,TTTCGT,0.093
2,GGCCAG,1.02
3,CCGACG,-2.21
4,CGGCCG,0.792
5,CAGATC,0.275
6,ACGGCC,1.56
7,GCGAGC,-1.91
8,TGATCG,-0.073
9,CTCTAC,-0.191
10,CAGCTA,-0.181
11,GGGAAC,-0.006
12,ATCCCT,0.052
13,TGCGGC,1.08
14,ATGGCC,0.71
15,GGCTCA,0.238
16,AGTTTA,-0.026
17,AGCAAA,-0.884
18,TTACTA,1.05
19,GCTGGA,0.232
20,CTGGCC,0.032

row,Sequence,6-mer SELEX enrichment z-score
1,CCTGAT,-0.238
2,CGACTG,-0.904
3,TGGCTC,-0.116
4,GACAGG,1.03
5,GCGAAG,-0.995
6,TGACGT,-0.782
7,TCGGAA,-0.082
8,AGCCCG,-1.26
9,AGCCGT,-0.912
10,ACGACA,0.258
11,CCTTTA,0.709
12,CCATGA,-0.05
13,AATAAA,1.45
14,AACTAC,0.411
15,ACGCGC,-0.826
16,GTAGGC,-0.037
17,TTCCTG,0.225
18,ACGGTA,-0.442
19,AATTAG,0.703
20,CGTCCG,-0.749
